Measured values: patent US6905846

System: recombinant factor X (rFX), expressed in CHO cells from human factor X cDNA
Sequence (chain, as listed by the source): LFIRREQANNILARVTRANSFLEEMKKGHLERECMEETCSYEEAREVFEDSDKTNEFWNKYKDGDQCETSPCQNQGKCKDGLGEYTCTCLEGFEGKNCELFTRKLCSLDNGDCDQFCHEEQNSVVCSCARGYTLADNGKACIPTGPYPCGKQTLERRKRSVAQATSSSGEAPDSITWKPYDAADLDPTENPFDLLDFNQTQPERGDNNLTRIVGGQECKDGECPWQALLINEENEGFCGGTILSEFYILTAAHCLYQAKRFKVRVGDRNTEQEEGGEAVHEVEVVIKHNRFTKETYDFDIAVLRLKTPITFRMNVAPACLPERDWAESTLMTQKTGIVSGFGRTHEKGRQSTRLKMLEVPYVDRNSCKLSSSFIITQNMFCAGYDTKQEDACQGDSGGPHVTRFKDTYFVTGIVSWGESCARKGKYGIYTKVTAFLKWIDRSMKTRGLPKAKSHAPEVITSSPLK

rfurin ÿTM6xHis (r-furin derivative, as CHO cell culture supernatant; patent application EP 0 775 750) (sequence not shown)
N-termini of rFX processing products (Edman analysis) after 12 hours at 37° C. with CHO-r-furin supernatant: After incubation of rFX from CHO cells (c) and CHO-FD11 cells (e) in the presence of furin, only light and heavy chains having correct N-termini are found. | activity (mU), FX Coatest after RVV activation, incubation 0 days: 853 mU | activity (mU), FX Coatest after RVV activation, incubation 1 day: 1020 mU | activity (mU), FX Coatest after RVV activation, incubation 2 days: 1100 mU | activity (mU), FX Coatest after RVV activation, incubation 3 days: 1140 mU | activity (mU), FX Coatest after RVV activation, incubation 4 days: 1200 mU | processing of single chain and propeptide containing rFX to light/heavy chain (Western blot): CHO-rFX/CHO-rfurin shows almost complete processing already after 2 hours of incubation at 37 °C
